According to paper PMC4336329 (PLoS ONE, 2015):
Among all 310,000 compounds or so, about 14,000 (4.5%) showed an effect of 50% or more. Effects have a minus sign here. The list shows a part of the results.

Biological target: human ether-à-go-go-related gene (hERG) potassium channel (human, UniProt Q12809)
Assay: primary screen, population patch clamp on CHO cells stably expressing hERG
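Further: peak tail current of the secondary pulse compared with the same well before compound.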

Chain of human ether-à-go-go-related gene (hERG) potassium channel (Q12809 whole entry, looked up): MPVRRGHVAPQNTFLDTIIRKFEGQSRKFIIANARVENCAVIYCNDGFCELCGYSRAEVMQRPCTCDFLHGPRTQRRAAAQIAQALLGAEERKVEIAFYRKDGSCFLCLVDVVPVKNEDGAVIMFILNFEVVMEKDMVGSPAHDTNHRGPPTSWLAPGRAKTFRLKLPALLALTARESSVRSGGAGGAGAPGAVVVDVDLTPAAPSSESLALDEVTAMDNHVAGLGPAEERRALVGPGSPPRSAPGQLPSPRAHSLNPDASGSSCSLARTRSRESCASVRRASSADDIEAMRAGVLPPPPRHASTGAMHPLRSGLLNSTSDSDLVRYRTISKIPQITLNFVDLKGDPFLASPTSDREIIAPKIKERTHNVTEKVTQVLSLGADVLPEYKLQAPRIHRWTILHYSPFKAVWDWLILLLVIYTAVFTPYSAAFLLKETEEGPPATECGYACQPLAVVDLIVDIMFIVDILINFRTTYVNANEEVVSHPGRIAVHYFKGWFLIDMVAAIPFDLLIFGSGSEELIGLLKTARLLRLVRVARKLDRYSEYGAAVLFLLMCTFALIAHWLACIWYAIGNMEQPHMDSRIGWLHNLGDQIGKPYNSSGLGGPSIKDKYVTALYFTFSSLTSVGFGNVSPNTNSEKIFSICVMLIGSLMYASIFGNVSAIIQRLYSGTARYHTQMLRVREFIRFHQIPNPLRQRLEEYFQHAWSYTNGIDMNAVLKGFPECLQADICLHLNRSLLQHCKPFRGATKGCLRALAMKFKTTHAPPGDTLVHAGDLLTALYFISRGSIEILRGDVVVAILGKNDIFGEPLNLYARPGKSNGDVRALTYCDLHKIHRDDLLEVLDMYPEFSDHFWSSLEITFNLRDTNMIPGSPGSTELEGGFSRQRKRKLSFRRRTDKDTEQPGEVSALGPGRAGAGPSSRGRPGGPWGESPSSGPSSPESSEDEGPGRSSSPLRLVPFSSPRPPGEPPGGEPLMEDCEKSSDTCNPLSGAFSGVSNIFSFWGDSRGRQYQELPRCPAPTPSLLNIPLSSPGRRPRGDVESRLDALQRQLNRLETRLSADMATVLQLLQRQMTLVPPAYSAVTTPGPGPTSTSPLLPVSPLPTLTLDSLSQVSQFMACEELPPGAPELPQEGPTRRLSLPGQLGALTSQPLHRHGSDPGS

Going from `COc1ccccc1Nc1nc(N)nc(CN2CCN(c3ccccc3)CC2)n1` to `CCOC(=O)C1CCCN(Cc2nc(N)nc(Nc3ccccc3)n2)C1` (centres unmarked), the “hERG current change (%, negative = inhibition) at 10uM” value falls from -52.9% to -71.2%.

Going from `CCOC(=O)C1CCN(C(=O)CSCc2nc(-c3ccc(OCC)cc3)oc2C)CC1` to `COc1ccccc1NC(=O)c1sc2ncn(CC(=O)N3CCC(C)CC3)c(=O)c2c1C`, the “hERG current change (%, negative = inhibition) at 10uM” value rises from -33.4% to 18.2%.

Going from `O=C1SCCc2c1n(Cc1ccccc1)c1ccccc21` to `Clc1ccc(CN2CCC(c3ccccc3)CC2)cc1`, the “hERG current change (%, negative = inhibition) at 10uM” value falls from 2.89% to -59.1%.

Compared with `COC(=O)c1sccc1NC(=O)c1cccc(Cl)c1`, `COC(=O)c1sccc1NC(=O)CNC(=O)c1ccccc1` is higher in “hERG current change (%, negative = inhibition) at 10uM” value: -27.3% for the first, -9.02% for the second.

Going from `Cc1cccn2c(=O)c3cc(C(=O)NCCCn4ccnc4)n(C)c3nc12` to `Cc1cccn2c(CN3CCNC(=O)CC3)c(C(=O)N(C)CCc3ccccc3)nc12`, the “hERG current change (%, negative = inhibition) at 10uM” value rises from -11% to 6.33%.

Compared with `COc1ccc(S(=O)(=O)Nc2ccc(S(=O)(=O)NCC3CCCO3)cc2)cc1` (centres unmarked), `CCOc1ccccc1CN1CCCC(CNS(=O)(=O)c2ccc(OC)cc2)C1` (centres unmarked) is lower in “hERG current change (%, negative = inhibition) at 10uM” value: 6.4% for the first, -63.7% for the second.

Going from `CCCCc1nnc(NC(=O)CSCc2cc(=O)n3cc(C)sc3n2)s1` to `CCOc1ccc(NC(=O)CSc2nnc(-c3cc(C)[nH]n3)n2N)cc1`, the “hERG current change (%, negative = inhibition) at 10uM” value rises from 5.31% to 25.3%.

Compared with `CC1C(=O)N2CCCc3cc(NC(=O)C(=O)NCCc4ccccc4)cc1c32` (centres unmarked), `CC(C)n1nc(C(=O)NCCCN2CCCC2=O)c2ccccc2c1=O` is higher in “hERG current change (%, negative = inhibition) at 10uM” value: -10.8% for the first, 8.76% for the second.

First: CCOc1ccccc1NC(=O)/C=C/C(N)=O
Second: O=C(COC(=O)C1CCCN1C(=O)c1cccs1)c1ccccc1 (centres unmarked)
The “hERG current change (%, negative = inhibition) at 10uM” value of the first is higher: 7.3% for the first, -11.6% for the second.

Going from `O=C(Nc1cccc(-n2cccn2)c1)C1CCCN(Cc2ccc(C#CCCO)cc2)C1` (centres unmarked) to `CCOC(=O)CSc1nnc(CNc2cccc(Cl)c2)n1-c1ccccc1`, the “hERG current change (%, negative = inhibition) at 10uM” value rises from -42.4% to -25.3%.

First: CCc1ccc(OCC(=O)NNC(=O)c2nn(CC)c(=O)c3ccccc23)cc1
Second: COCCCn1c(-c2ccc(OC)cc2)nc2c1c(=O)[nH]c(=O)n2Cc1ccccc1
The “hERG current change (%, negative = inhibition) at 10uM” value of the first is lower: -57.9% for the first, -8.91% for the second.

First: Cc1nc2ccc(S(=O)(=O)N(C)CC(=O)NCc3ccc(N(C)C)cc3)cc2s1
Second: Cc1ccc(S(=O)(=O)N(C)C)cc1NC(=O)COc1ccccc1C(=O)Nc1ccccc1
The “hERG current change (%, negative = inhibition) at 10uM” value of the first is higher: -6.07% for the first, -26.6% for the second.

Compared with `CCCCCNC(=O)CCc1ccccc1`, `Cc1nnc(SCCc2ccccc2)[nH]c1=O` is lower in “hERG current change (%, negative = inhibition) at 10uM” value: -0.256% for the first, -7.64% for the second.

First: CC(=O)c1ccc(OCCCC(=O)Nc2ccc(S(=O)(=O)N3CCOCC3)cc2)cc1
Second: COc1cccc(-c2nnc(NC(=O)c3ccc(S(=O)(=O)N4CCOCC4)cc3)o2)c1
The “hERG current change (%, negative = inhibition) at 10uM” value of the first is higher: 3.37% for the first, -5.19% for the second.

Going from `S=c1[nH]nc(-c2ccc3ccccc3n2)n1-c1ccc2c(c1)OCCO2` to `NC1=NC(c2ccc(Cl)cc2)n2c(nc3ccccc32)N1` (centres unmarked), the “hERG current change (%, negative = inhibition) at 10uM” value falls from 17.7% to -3.14%.

First: CCN1CCCC1CNCc1ccc(Cl)cc1Cl.Cl (centres unmarked)
Second: CCN1C(=NCc2cccc(Cl)c2)N[C@@H](c2cccc(F)c2)C(C(=O)OC)=C1C
The “hERG current change (%, negative = inhibition) at 10uM” value of the first is lower: -64.6% for the first, -41.4% for the second.

Compared with `COc1cccc(OCc2cc(C(=O)NCC3CCCCC3)no2)c1`, `COc1cc(Cl)ccc1OCc1cc(C(=O)N2CCCCCCC2)no1` is lower in “hERG current change (%, negative = inhibition) at 10uM” value: 20.2% for the first, 10.1% for the second.

Going from `Cc1cccc2sc(NC(=O)C3c4ccccc4Oc4ccccc43)nc12` to `CN1C(=O)/C(=N\OC(=O)c2cccc3ccccc23)c2ccccc21`, the “hERG current change (%, negative = inhibition) at 10uM” value rises from 0.113% to 4.54%.

First: Cc1cc(OCc2nc(-c3cccs3)no2)cc(C)c1Cl
Second: COc1ccc2c(C)cc(=O)oc2c1C
The “hERG current change (%, negative = inhibition) at 10uM” value of the first is higher: 17.8% for the first, 6.64% for the second.

First: COc1cc(C(CN)CC(=O)O)ccc1O.Cl (centres unmarked)
Second: CCCc1cc(=O)c2c(O)cccc2o1
The “hERG current change (%, negative = inhibition) at 10uM” value of the first is higher: 11.9% for the first, 5.41% for the second.

First: NC(=O)CCCn1c(C(=O)c2cc(Cl)c(N)c(Cl)c2)c2ccc(C(F)(F)F)cc2[n+]1[O-]
Second: COc1cc(C(=O)NCCCN(C)C)ccc1OCC(=O)Nc1cccc(C(F)(F)F)c1
The “hERG current change (%, negative = inhibition) at 10uM” value of the first is higher: -41.1% for the first, -59.1% for the second.

Compared with `COC(=O)C1C(=O)NC(SC)=C(C#N)C1c1ccccc1` (centres unmarked), `CNCc1cc2ccc(C)cc2[nH]c1=O` is lower in “hERG current change (%, negative = inhibition) at 10uM” value: 8.09% for the first, -33.1% for the second.

Going from `CNC(=O)CSCCn1c(SCC(=O)NC)nc2ccccc2c1=O` to `O=C(CSc1nc2ccccc2s1)N/N=C/c1ccc(C(=O)O)cc1`, the “hERG current change (%, negative = inhibition) at 10uM” value rises from 13.1% to 14.6%.

First: CCOc1ccc(NC2=CC(=O)CCC2)cc1
Second: CC(=O)Nc1ccc(-c2csc(Nc3ccc(Cl)cn3)n2)cc1
The “hERG current change (%, negative = inhibition) at 10uM” value of the first is lower: 15.1% for the first, 20.8% for the second.

First: COc1ccccc1C(=O)Nc1ccnn1C1CCN(Cc2ccn[nH]2)CC1
Second: c1cc(C2CCN(Cc3nc(-c4ccc5c(c4)OCO5)no3)CC2)ccn1
The “hERG current change (%, negative = inhibition) at 10uM” value of the first is lower: -36.1% for the first, -19.7% for the second.

Compared with `CCOC(=O)NC(=O)C(/C=N/c1sccc1C(=O)OC)=C(\C)O`, `CC(=O)c1cccc(NC(=O)COC(=O)[C@@H](NC(=O)OCc2ccccc2)C(C)C)c1` is lower in “hERG current change (%, negative = inhibition) at 10uM” value: -5.69% for the first, -40.2% for the second.

Going from `CCSc1ncc(C)cc1[N+](=O)[O-]` to `Cn1c(CO)c(-c2ccccc2)c2cc([N+](=O)[O-])ccc21`, the “hERG current change (%, negative = inhibition) at 10uM” value rises from -7.74% to 10.2%.

Going from `COc1ccccc1N1CCN(C(c2ccc(Cl)cc2)c2nnnn2C(C)(C)C)CC1` (centres unmarked) to `O=C(c1ccco1)N1CCN(S(=O)(=O)Cc2ccc(Cl)cc2)CC1`, the “hERG current change (%, negative = inhibition) at 10uM” value falls from 5.14% to -36%.

Compared with `Brc1ccc2c(c1)CNc1c(ncnc1N1CCOCC1)O2`, `N#CCc1nc2ccc(S(=O)(=O)N3CCOCC3)cc2s1` is higher in “hERG current change (%, negative = inhibition) at 10uM” value: -15.5% for the first, -9.71% for the second.

Going from `COc1cccc(N(CC(=O)N2CCCC2)S(C)(=O)=O)c1` to `COc1ccc(OC)c2[nH]c(C(=O)N3CCC(C(=O)O)CC3)cc12`, the “hERG current change (%, negative = inhibition) at 10uM” value rises from 19.6% to 24.6%.

Going from `Cc1ccc(C)c(NC(=S)NNC(=O)c2csc(C)c2)c1` to `COc1ccc2[nH]c(C)c(CCNCc3cccnc3)c2c1.O=C(O)C(=O)O`, the “hERG current change (%, negative = inhibition) at 10uM” value falls from 23.6% to -3.77%.

Going from `O=C(Oc1ccccc1)Oc1ccc2c(c1)oc(=O)c1ccccc12` to `O=C(O)c1ccc2c3c(cccc13)C(=O)N(c1ccccc1)C2=O`, the “hERG current change (%, negative = inhibition) at 10uM” value falls from 16.9% to 6.65%.

Compared with `CC1CCCN(C(=O)CSc2ncccn2)C1` (centres unmarked), `O=C(NC1CCCC1)C1CCN(S(=O)(=O)c2ccccc2)CC1` is lower in “hERG current change (%, negative = inhibition) at 10uM” value: 14.8% for the first, 4.07% for the second.

Compared with `O=C(O)c1cccc(NCc2cccnc2)c1`, `CCOc1ccc(-c2nc(S(=O)(=O)c3ccccc3)c(NCc3cccnc3)o2)cc1` is lower in “hERG current change (%, negative = inhibition) at 10uM” value: 9.7% for the first, -2.9% for the second.

Going from `Cc1cccc(N(C(=O)CS(=O)CC(=O)Nc2ccc3c(c2)OCO3)C(C)C(=O)NC2CCCC2)c1C` (centres unmarked) to `COCCOC(=O)C1=C(C)NC(=O)CC1c1cc2c(cc1Br)OCO2` (centres unmarked), the “hERG current change (%, negative = inhibition) at 10uM” value falls from -11.6% to -11.7%.

First: O=C(Nc1cccc(-c2csc(Nc3ccc(Cl)cc3)n2)c1)c1cccc(C(F)(F)F)c1
Second: CCN(c1ccccc1)S(=O)(=O)c1ccc(Cl)c(NC(=O)COC(=O)c2ccc(Cl)c(N)c2)c1
The “hERG current change (%, negative = inhibition) at 10uM” value of the first is higher: 15.1% for the first, 7.36% for the second.

Going from `CC(NC(=O)CCNS(=O)(=O)c1cccc2nsnc12)c1ccccc1` (centres unmarked) to `O=C(O)CCCC(=O)N1CCc2cc(S(=O)(=O)N3CCc4ccccc43)ccc21`, the “hERG current change (%, negative = inhibition) at 10uM” value rises from -8.74% to 14.4%.

First: O=C(O)CN1C(=O)/C(=C/c2ccc(N3CCCCC3)o2)SC1=S
Second: Cc1ccc(S(=O)(=O)NC2CCCCC2)cc1C(=O)N1CCC(C(N)=O)CC1
The “hERG current change (%, negative = inhibition) at 10uM” value of the first is higher: 21.4% for the first, 8.46% for the second.

Compared with `O=C1NC(=Nc2ccc(O)cc2)S/C1=C/c1ccco1`, `Cc1cccc(OCc2nnc(SCC(=O)N3CC(=O)Nc4ccccc43)o2)c1` is lower in “hERG current change (%, negative = inhibition) at 10uM” value: 16.7% for the first, 13.5% for the second.

Compared with `CCOc1cc2c(cc1OCC)C(c1ccc(C(=O)O)cc1)NCC2.Cl` (centres unmarked), `COc1ccc(N(C(=O)COc2ccccc2)C2C=CS(=O)(=O)C2)c(OC)c1` (centres unmarked) is lower in “hERG current change (%, negative = inhibition) at 10uM” value: 6.83% for the first, -25.5% for the second.

Compared with `CCn1c(COc2ccc(C)cc2)nnc1SCc1nc2ccccc2[nH]1`, `Cc1ccc(-c2nnc(SCC(=O)N/N=C/c3ccc(C)s3)n2-c2ccc(C)cc2)cc1` is higher in “hERG current change (%, negative = inhibition) at 10uM” value: -23.1% for the first, -17.4% for the second.

First: COc1cccc(/C=C2\C(=O)N(c3cccc(C)c3)C(=O)c3ccccc32)c1
Second: COc1ccc(N/C=C(\C#N)S(=O)(=O)c2ccc(Cl)cc2)c(OC)c1
The “hERG current change (%, negative = inhibition) at 10uM” value of the first is higher: 4.6% for the first, -8.9% for the second.

First: CCCCN(CCCC)c1cc(C)nc(-c2ccccc2O)n1
Second: C=CCSc1nnc(Cc2c(C)[nH]c3ccccc23)o1
The “hERG current change (%, negative = inhibition) at 10uM” value of the first is higher: 16.8% for the first, -14.2% for the second.

Compared with `O=C(NCC1COc2ccccc2O1)c1ccccc1` (centres unmarked), `CC(C(=O)N(C)Cc1ccccc1)N1CCN(C/C=C/c2ccccc2)CC1` (centres unmarked) is lower in “hERG current change (%, negative = inhibition) at 10uM” value: -1.83% for the first, -78.9% for the second.

With `CCc1ccc(/C=C2\Oc3c(ccc(O)c3CN3CCN(CCO)CC3)C2=O)cc1` the “hERG current change (%, negative = inhibition) at 10uM” value was -2.12%.
